Test results: PubChem BioAssay AID1347120 (National Center for Advancing Translational Sciences (NCATS), 2019)
Where “and” joins values, the source holds several entries; their conditions need not be identical. Equal entries are not always repeated. The whole screen tested about 390,000 compounds, of which about 930 (0.24%) were called active. Inconclusive means that the source gave no clear call. Such entries were picked first, then a sample of the others. Calls come from the whole dose curve; as a rule, active = well fitted activation curve with a large enough effect; inconclusive = small, poorly fitted or top-dose-only effect; inactive = no such curve, though single readings can be large or run the other way. Potencies of inconclusive entries are doubtful fits and often do not repeat.

Test: qHTS for Suppressors of FUS Proteinopathy: Primary screen using FUS-linked yeast assay; note: nearly all actives have a fitted effect of over 55% in size;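 for growth rescue (activation): plate controls were DMSO vehicle for no effect and reference control for full effect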
Settings: S. cerevisiae FUS-expressing, OD600, 24 h; Potency: growth rescue; growth rescue (activation): at 76.6 µM (top of the series)
Outline: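 Absorbance at 600 nm, taken 24hr after compound addition, measured rescue of FUS-yeast growth at 30C. Induction used 2% galactose with seeding at OD 0.005. Controls: CP55940 from 92uM final, DMSO only.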
Potency is the fitted concentration of half-maximal effect; tags give direction and shape of the fitted curve.

SMILES | Potency | growth rescue (activation)
COc1ccc(-c2cc(OC)c3c(C)oc(C)c3c(=O)c2)cc1OC | inconclusive: 35.5 µM [activator, partial curve, poor fit] | 
Cc1ccc(C)c(N=Cc2ccc(-c3ccc([N+](=O)[O-])cc3)o2)c1 | inconclusive: 20 µM [activator, partial curve, poor fit] | 
O=C(Cc1cccc(NC(=O)C2CCCN(C(=O)CCc3ccccc3)C2)c1)Nc1ccc(C(=O)N2CCCCC2)cc1 (configuration not stated) | inconclusive: 44.7 µM [activator, single point] | 
CCCCCCCCCCCCCCCCn1cc[n+](C)c1 | inconclusive: 12.6 µM [activator, partial curve, poor fit] and inconclusive: 28.2 µM [activator, single point] | 
CCOC(=O)[C@]12CCCC=C1N(Cc1ccc(Cl)cc1Cl)C(=O)[C@H](CC(=O)N1CCCCC1)C2 | inconclusive: 14.1 µM [activator, partial curve, poor fit] | 
COc1ccc(N2CCN(C(=O)C(C)n3c(=O)cc(C(F)(F)F)c4c(C)nn(C)c43)CC2)cc1 (configuration not stated) | inconclusive: 28.2 µM [activator, single point] | 
C=CCn1c(Cc2cccs2)nnc1SCC(=O)Nc1ccc(OCc2ccccc2)cc1 | inconclusive: 11.2 µM [activator, partial curve, poor fit] | 
CC(C)c1cc(C(C)C)c(S(=O)(=O)N2CCC(C(=O)NCC3COCCO3)CC2)c(C(C)C)c1 (configuration not stated) | inconclusive: 28.2 µM [activator, single point] | 
O=C(CSC1=Nc2ccccc2N=C(c2ccc(F)cc2)C1)Nc1ccc(Cl)cc1 | inactive | 
CC(C)NC(=O)C1CCN(C(=O)c2cc3sccc3n2Cc2ccc(F)cc2)CC1 | inactive | 
CCOC(=O)N1CCN(C(=O)COC(=O)C2CCN(S(=O)(=O)c3c(C)c(C)cc(C)c3C)CC2)CC1 | inconclusive: 28.2 µM [activator, single point] | 
CCCCn1c(SCc2nc3ccccc3s2)nc2cc(S(N)(=O)=O)ccc21 | active: 22.4 µM | 
COc1ccccc1CNC(=O)CCCn1c(=O)c2ccccc2n(Cc2ccccc2C#N)c1=O | inactive | 
COc1ccccc1NC(=O)CSc1oc(-c2ccccc2)nc1S(=O)(=O)c1ccccc1 | inactive | 
NC(=O)c1ccc(NC(=O)CCc2nc3ccccc3s2)cc1 | inconclusive: 39.8 µM [activator, single point] | 
CC(=O)OC1CCC2C3CCc4cc(O)ccc4C3CCC12C (configuration not stated) | inactive | 
CCN(CC)S(=O)(=O)c1cc(NC(=O)c2cc([N+](=O)[O-])ccc2N2CCOCC2)ccc1C | inconclusive: 50.1 µM [activator, single point] | 
CCOC(=O)c1ccc(NC(=O)CN2CCc3ccccc3C2)cc1 |  | inconclusive: 69% [activator]
Cc1ccc(S(=O)(=O)N2C[C@]3(O)C[C@@H]4C(=O)N(c5ccccc5)C(=O)[C@@H]4C[C@]3(OC(=O)Nc3cccs3)C2)cc1 | inconclusive: 50.1 µM [activator, single point] | 

SMILES | Potency | growth rescue (activation)
CC(Oc1ccccc1)C(=O)N1CCc2ccccc2C1 (configuration not stated) | inactive | 
CCN1C(=O)c2ccccc2S(=O)c2ccc(C(=O)N3CCN(c4ccccc4OC)CC3)cc21 (configuration not stated) | inconclusive: 6.31 µM [activator, full curve] | 
CC1O[C@@H](OC2C(COC3OC(CO)C(O)[C@H](O)C3O)OC(OC3CC[C@]4(C)C(CC[C@@]5(C)[C@@H]4CC=C4[C@@H]6CC(C)(C)CC[C@]6(CO)C(O)C[C@]45C)C3(C)C)C(O)C2O)C(O)C(O)C1O (some centres not stated) | inconclusive: 14.1 µM [activator, partial curve] | 
Cc1ccc(S(=O)(=O)N2CCN(C(=O)COC(=O)CNC(=O)c3ccc(C(C)(C)C)cc3)CC2)c(C)c1 | inconclusive: 15.8 µM [activator, partial curve, poor fit] | 
N#Cc1c(-c2ccc(Cl)cc2Cl)nc2n(c1=O)CCS2 | inconclusive: 31.6 µM [activator, partial curve, poor fit] | 
O=C(CN1C(=O)NC2(CCc3ccccc32)C1=O)c1ccc(Br)cc1 (configuration not stated) | inconclusive: 50.1 µM [activator, single point] | 
Cc1cccc2sc(NNC(=O)c3ccc(S(=O)(=O)N4CCc5ccccc5C4)cc3)nc12 | inactive | 
CC(C)OC(=O)N(C)C[C@@H]1OCc2cnnn2CCCC(=O)N([C@H](C)CO)C[C@H]1C | inactive | 
CCCCn1c(N2CCC(Cc3ccccc3)CC2)nc2c1c(=O)[nH]c(=O)n2C | inconclusive: 25.1 µM [activator, single point] | 
Clc1cccc(Cl)c1/C=C/c1nc2ccccc2[nH]1 | inconclusive: 39.8 µM [activator, partial curve, poor fit] | 
COc1cccc(C2CC(c3cccs3)=NN2C(=O)CSC2=NN3CCCC(=O)N=C3S2)c1OC (configuration not stated) | inconclusive: 14.1 µM [activator, single point] | 
O=C(CSc1nnnn1C1CCCCC1)Nc1nc2c(s1)CCCC2 | inactive | 
CC(=O)Nc1ccc(-c2nnc(SCC(=O)c3ccc4c(c3)Cc3ccccc3-4)n2C)cc1 | inconclusive: 14.1 µM [activator, partial curve, poor fit] | 
Cc1ccc(S(=O)(=O)c2cn(CC(=O)Nc3ccc4c(c3)OCO4)c3ccccc3c2=O)cc1C | inconclusive: 14.1 µM [activator, partial curve, poor fit] | 
C#CCOCCOCCOCCNc1nc(N2CCN(C(=O)Cn3cc(CC(C)O)nn3)CC2)nc(N2CCN(C(=O)[C@H](CCCCN)n3cc(CCC(=O)O)nn3)CC2)n1 (some centres not stated) | inactive | 
CCc1nn(CCCC(=O)NCc2cc(Br)ccc2OC)c(=O)c2cc3occc3n12 | inconclusive: 39.8 µM [activator, partial curve, poor fit] | 
COc1cccc(C(=O)Nc2cccc(C(=O)OCc3cc(=O)n4c5c(sc4n3)CCCC5)c2)c1 | inactive | 
COc1ccc(Cn2nnnc2CN2CCc3ccccc32)cc1 | inconclusive: 28.2 µM [activator, single point] | 
